This assay has as its system NCI-H322M lung. In words: NCI tumour cell line growth inhibition, 48 h.

This note sets out measurements from PubChem BioAssay (NCI).

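Grown in 96-well plates, cells were treated for 48 hours with each compound at five concentrations. Insufficient inhibition: endpoint recorded as highest concentration tested. GI50 = concentration required for 50% inhibition of growth. At the TGI there is no net growth.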

For `CN(C)CCCn1c2c(c3ccc(-c4ccn[nH]4)cc3c1=O)C(=O)c1ccccc1-2`, the GI50 was 7.05 µM and the TGI came out at 20.8 µM.
Regarding `C=C1CCc2ccccc2C1=O`, the TGI was > 100 µM.
The same measure, in the same setting: as for `CCOP(=O)(OCC)/C(C#N)=C\c1ccc(OC(C)=O)cc1`, the figure is > 100 µM; as for `COc1ccc2c(ccc3c(C(=O)NCCN(C)CCNC(=O)c4cn(C)c5c4ccc4cc(OC)ccc45)cn(C)c32)c1`, 7.26 µM; as for `CCOC(=O)c1cn2c(n1)sc1cc(C)c(C)cc12`, 37.7 µM.
In the case of `CC1=C(c2cc(C(=O)Nc3cc(C)ccc3C)nc(N)n2)Sc2ccccc2N1`, the TGI is > 100 µM.
Same read-out and setting: as for `COc1nc(Cl)nc(Cl)c1Cl` (tested in a mixture with another compound), the figure is 28 µM; as for `CC(=O)OCC1(C)C(OC(C)=O)CCC2(C)C(CC(OC(C)=O)C3=CCOC3=O)C(O)(CO)CCC12` (centres undefined), > 100 µM; as for `Cc1nc2sccn2c1C(=O)N/N=C1\SCC(=O)N1C`, > 100 µM.
On the same count and under the same terms, to `CCc1cccc(C)c1NC(=O)CC(=O)NNC(N)=S` belongs > 100 µM.
With `COc1ccc2nc3cccc([N+](=O)[O-])c3c(NCCNCCO)c2c1`, the GI50 is 0.0844 µM and the TGI was 0.77 µM.
The molecule `CCOC(=O)/C=C\c1c(Cl)n(-c2ccccc2)c(=O)n(-c2ccccc2)c1=O` yielded a TGI of 37.1 µM.
In the case of `Cc1cc(N(CCNc2ccnc3cc(Cl)ccc23)Cc2cccs2)nc(Cl)n1`, the GI50 is 1.75 µM and the TGI was determined as 4.16 µM.
With `C/C=C/[C@@H](C(=O)OC)N1C(=O)c2ccccc2[C@H]1O`, the TGI is > 100 µM.
Take `CCOC(=O)c1nnn(-c2no[n+]([O-])c2-c2ccc(OC)cc2)c1COc1cccc2cccnc12`: the GI50 is 11.4 µM and the TGI was 23.8 µM.
In the case of `Cc1cc(C(C)C)cc(O)c(=O)c1`, the TGI was > 100 µM.
Turning to `COc1ccc2nc3ccccc3c(NCc3ccc(Cl)cc3)c2c1`, the GI50 is 2.18 µM and the TGI stood at 5.7 µM.
For the molecule `Oc1cccc(-c2nc(-c3n[nH]c(=S)n3-c3ccccc3)cc3c2[nH]c2ccccc23)c1`, the GI50 is 2.37 µM and the TGI is 9.44 µM.
For `CCOC(=O)/C=C1/SC(N2CCCCC2)C(=O)N1CC` (centres undefined), in that order: > 100 µM and > 100 µM.
`Cc1nc2c(o1)C(=O)c1ccccc1C2=Nc1ccccc1` returned a TGI of 29.8 µM.
The same measure, in the same setting: as for `CCCCCCCCCCn1cccc1/C=C/c1ccc(/C=C/c2cccn2CCCCCCCCCC)cc1`, the figure is > 100 µM.
On to `COc1ccc(CCCNC(=O)Cc2cc(OC)c(OC)cc2CO)cc1OC`, for which the TGI was > 100 µM.
For the molecule `COc1cc2c(cc1OCc1ccccc1)N=CC1C[C@@H](O)CN1C2=O` (some centres undefined), the GI50 was 20.4 µM and the TGI came to 72.5 µM.
For `CC(=O)OC1CC2C(C)(C)C(=O)C=C[C@]2(C)C2CC[C@]3(C)C(OCC(=O)[C@H]3c3ccoc3)[C@]12C` (some centres undefined), in that order: 2.27 µM and 8.71 µM.
Regarding `Cn1cc(-c2ccc(-c3cn(C)c4ccc(Cl)cc34)[nH]2)c2cc(Cl)ccc21`, the GI50 is 4.14 µM and the TGI was 22.2 µM.
Regarding `Cc1ccc(Cc2nc(=S)[nH][nH]2)cc1`, the TGI is > 100 µM.
On the same count and under the same terms, as for `C/C(=N/OC(=O)c1cccc2c(=O)c3ccccc3[nH]c12)[C@H]1CC[C@H]2[C@@H]3CCC4=C/C(=N/OC(=O)c5cccc6c(=O)c7ccccc7[nH]c56)CC[C@]4(C)[C@H]3CC[C@]12C`, the figure is 78.5 µM.
Consider `O=c1cc(NCC(O)CN2CCOCC2)n(Cc2ccccc2)c(=O)n1Cc1ccccc1` (centres undefined), for which the GI50 was > 100 µM and the TGI is > 100 µM.
On to `CSC(Cc1ccc2c(c1)Sc1ccccc1O2)=[N+]1CCOCC1`, for which the TGI is > 100 µM.
On the same count and under the same terms, as for `CCN(CC)CCCNc1[nH]ncc2cc3c(nc4ccccc43)c(C)c12`, the figure is 17.8 µM; as for `CO/C(=N\N=Cc1ccccc1)c1ccncc1`, > 100 µM; as for `COc1cc2c(oc(=O)c3cc(C)cc(OC)c32)c2c(C3OC(C)C(O)C(C)(O)C3O)ccc(O)c12` (centres undefined), 2.42 µM.
As for `CC(=O)N1CCC(Nc2cc(C(=O)NC[C@H](O)CN3CCc4ccccc4C3)ncn2)CC1`, the GI50 was > 100 µM and the TGI is > 100 µM.
In turn, `Cc1cc(O)c(C=O)c(C)c1CCC1(C)C=Cc2cc(O)ccc2O1` (centres undefined) gave a TGI of 84.1 µM.
Still for that read-out and setting: to `O=c1[nH]c2[nH]c(-c3ccc(Br)cc3)cc2c2ccccc12` belongs > 100 µM.
Still for that read-out and setting: as for `CC1CC(=O)C2CC(CO)=CCCC2C1(C)CC/C(=C/CO)CO` (centres undefined), the figure is > 100 µM.
On the same count and under the same terms, as for `CN1CCN(CC(=O)N2c3ccccc3Sc3cc4ccccc4cc32)CC1`, the figure is 28.4 µM.
For the molecule `COc1ccc2c(c1)[n+]([O-])c(C#N)c(NC(=O)c1cccs1)[n+]2[O-]`, the GI50 was > 100 µM and the TGI is > 100 µM.
In the case of `O=C(c1cccs1)N(C(=S)N1CCN(c2ccccc2)CC1)C1CCCCC1`, the TGI was > 100 µM.
Still for that read-out and setting: as for `CC(C)c1ccc(/C=C2\N=C(c3ccc([N+](=O)[O-])cc3)OC2=O)cc1`, the figure is > 100 µM.
Turning to `Cc1cc(Oc2ccccc2)ccc1Nc1ncnc2ccc(-c3cnc(Cl)c(NS(C)(=O)=O)c3)cc12`, the GI50 was 1.2 µM and the TGI is 4.03 µM.
For `COc1ccc(N2CCN(C(=O)c3ccc(C(F)(F)F)nc3Nc3cc(Cl)ccc3C)CC2)cc1` the same measures were 10.8 µM and 32.5 µM.
As to `c1ccc(C(NC2CCCCC2NCCNC2CCCCC2NC(c2ccccc2)(c2ccccc2)c2ccccc2)(c2ccccc2)c2ccccc2)cc1` (centres undefined), the TGI is > 100 µM.
As to `CCOC(=O)/C(SC#N)=C(/N)N1CCCC1`, the TGI was > 100 µM.
On to `CC(C)=CC(=O)OC1C(CO)OC(Oc2cc(O)c3c(=O)cc(-c4ccc(O)c(O)c4)oc3c2)C(OC2OC(C)C(O)C(O)C2O)C1O` (centres undefined), for which the GI50 was > 100 µM and the TGI was > 100 µM.
Consider `Oc1ccc(-c2nc(=S)[nH][nH]2)cc1`, for which the TGI is > 100 µM.
Regarding `C[n+]1c2ccccc2c(Nc2ccc(N3CCCCC3)cc2)c2[nH]c3ccccc3c21`, the GI50 was 0.7 µM and the TGI was 2.02 µM.
For `OCc1ccc(N(Cc2ccc(F)cc2)CC2CC2)cc1Cl` the same measures were 9.7 µM and 22.1 µM.
Consider `CC1=NN(C(=O)CC(=O)N(C(=O)c2ccccc2)c2ccc(Cl)cc2)C(=O)C1N=Nc1ccc([N+](=O)[O-])cc1` (centres undefined), for which the TGI was > 10 µM.
Still for that read-out and setting: as for `Cc1ccc(S(=O)(=O)NC(C(=O)O)C(C)C)cc1` (centres undefined), the figure is > 100 µM; as for `CCOC(=O)C(NC(=O)CC)(Nc1ccccc1OC)C(F)(F)F` (centres undefined), > 100 µM.
In the case of `CC(C)C[C@H](NC(=O)Cn1ccc(Nc2ccccc2)cc1=O)B(O)O`, the GI50 was 25.8 µM and the TGI was > 100 µM.
Turning to `CC(C)(CN1CCCCC1)C(=O)/C=C/c1ccc(Cl)c(Cl)c1`, the TGI is > 100 µM.
Still for that read-out and setting: as for `CC1=C(C(=O)N[C@@H](CC(C)C)C(=O)O)N2C(=O)[C@@H](NC(=O)[C@@H](N)Cc3ccccc3)[C@H]2SC1`, the figure is > 100 µM.
Regarding `O=c1ccc2nc(C(F)(F)F)nn(-c3ccccc3)c-2c1`, the GI50 was 18.5 µM and the TGI is 33.6 µM.
Consider `CC(=O)N1C(Nc2cnc3ccccc3c2)CCN1c1ccccc1` (centres undefined), for which the TGI is > 10 µM.
In the case of `Nc1ccc(S(=O)(=O)Nc2cnc3ccccc3n2)cc1`, the TGI is > 100 µM.
On the same count and under the same terms, to `CN1CCN(C(=S)N(C(=O)c2ccco2)C2CCCCC2)CC1` belongs > 100 µM.
Regarding `CCOC(=O)C1=C(OC(OCC)C(C)[Se]c2ccccc2)CCC1` (centres undefined), the TGI is > 100 µM.
